From PubChem BioAssay AID504333 (National Center for Advancing Translational Sciences (NCATS), 2011)
The whole screen tested about 360,000 compounds, of which about 16,000 (4.4%) were called active. Inconclusive means that the source gave no clear call. Such entries were picked first, then a sample of the others. Calls come from the whole dose curve; as a rule, active = well fitted inhibition curve with a large enough effect; inconclusive = small, poorly fitted or top-dose-only effect; inactive = no such curve, though single readings can be large or run the other way. Potencies of inconclusive entries are doubtful fits and often do not repeat.

Biological target: Bromodomain adjacent to zinc finger domain protein 2B (Homo sapiens) (UniProt Q9UIF8)
UniProt Q9UIF8, sequence (Q9UIF8 whole entry, looked up, the tested form may be a part): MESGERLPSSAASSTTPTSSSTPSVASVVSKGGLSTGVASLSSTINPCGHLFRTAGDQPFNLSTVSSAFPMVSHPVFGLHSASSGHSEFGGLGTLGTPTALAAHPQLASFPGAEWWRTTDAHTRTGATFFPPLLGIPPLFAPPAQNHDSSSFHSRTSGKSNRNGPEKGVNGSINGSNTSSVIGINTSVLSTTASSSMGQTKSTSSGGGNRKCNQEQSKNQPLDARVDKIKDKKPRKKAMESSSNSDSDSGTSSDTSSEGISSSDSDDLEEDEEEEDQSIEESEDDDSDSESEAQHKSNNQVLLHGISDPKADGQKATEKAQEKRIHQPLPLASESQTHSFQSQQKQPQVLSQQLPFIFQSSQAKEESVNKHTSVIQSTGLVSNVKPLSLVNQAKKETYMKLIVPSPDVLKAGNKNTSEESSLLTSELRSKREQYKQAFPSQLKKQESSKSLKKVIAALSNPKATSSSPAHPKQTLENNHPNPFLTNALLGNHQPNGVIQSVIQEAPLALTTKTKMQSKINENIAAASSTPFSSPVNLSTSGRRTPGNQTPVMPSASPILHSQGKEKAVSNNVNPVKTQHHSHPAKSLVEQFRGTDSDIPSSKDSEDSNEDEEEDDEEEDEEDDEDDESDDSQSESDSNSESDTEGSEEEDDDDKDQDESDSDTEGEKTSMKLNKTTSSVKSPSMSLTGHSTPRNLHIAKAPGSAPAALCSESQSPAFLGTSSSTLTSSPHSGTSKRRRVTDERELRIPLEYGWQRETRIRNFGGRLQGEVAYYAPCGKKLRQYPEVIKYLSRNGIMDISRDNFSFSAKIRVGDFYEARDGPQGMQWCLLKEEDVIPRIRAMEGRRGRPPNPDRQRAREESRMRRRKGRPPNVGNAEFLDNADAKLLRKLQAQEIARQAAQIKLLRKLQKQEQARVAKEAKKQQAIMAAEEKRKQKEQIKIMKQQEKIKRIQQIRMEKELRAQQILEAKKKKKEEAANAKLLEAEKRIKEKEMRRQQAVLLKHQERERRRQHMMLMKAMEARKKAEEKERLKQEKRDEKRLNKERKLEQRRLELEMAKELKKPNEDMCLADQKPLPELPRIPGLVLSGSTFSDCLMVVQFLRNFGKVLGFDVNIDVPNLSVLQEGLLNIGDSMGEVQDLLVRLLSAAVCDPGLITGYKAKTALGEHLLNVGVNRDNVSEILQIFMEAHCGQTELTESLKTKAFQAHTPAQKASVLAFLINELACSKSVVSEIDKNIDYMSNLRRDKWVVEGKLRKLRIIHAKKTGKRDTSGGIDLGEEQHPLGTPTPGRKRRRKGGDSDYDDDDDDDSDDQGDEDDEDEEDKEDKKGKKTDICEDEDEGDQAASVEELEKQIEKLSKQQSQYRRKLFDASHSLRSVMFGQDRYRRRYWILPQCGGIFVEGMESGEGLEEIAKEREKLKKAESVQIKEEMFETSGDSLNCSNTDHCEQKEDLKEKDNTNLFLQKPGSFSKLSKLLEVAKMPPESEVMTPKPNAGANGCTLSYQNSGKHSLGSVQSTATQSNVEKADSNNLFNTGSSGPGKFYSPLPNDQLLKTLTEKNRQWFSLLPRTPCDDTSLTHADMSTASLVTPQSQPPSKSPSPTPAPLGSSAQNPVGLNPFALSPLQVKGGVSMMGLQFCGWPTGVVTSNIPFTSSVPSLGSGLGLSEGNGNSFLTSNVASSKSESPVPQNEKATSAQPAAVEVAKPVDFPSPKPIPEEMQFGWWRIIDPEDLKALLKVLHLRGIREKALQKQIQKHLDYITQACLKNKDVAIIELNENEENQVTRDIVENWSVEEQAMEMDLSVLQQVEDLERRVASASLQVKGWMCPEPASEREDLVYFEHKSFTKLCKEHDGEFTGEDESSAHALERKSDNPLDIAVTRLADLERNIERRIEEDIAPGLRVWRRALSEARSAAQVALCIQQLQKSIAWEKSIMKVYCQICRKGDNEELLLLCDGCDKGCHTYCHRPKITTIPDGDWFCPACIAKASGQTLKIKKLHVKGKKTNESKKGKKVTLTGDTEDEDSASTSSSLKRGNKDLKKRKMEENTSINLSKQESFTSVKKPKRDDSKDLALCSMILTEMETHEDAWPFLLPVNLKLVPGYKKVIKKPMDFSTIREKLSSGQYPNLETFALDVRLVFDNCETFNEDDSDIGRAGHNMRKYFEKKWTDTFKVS
Assay: qHTS Assay for Inhibitors of BAZ2B; note: nearly all actives have a fitted effect of over 60% in size
Details: AlphaScreen BAZ2B-H3K14Ac peptide displacement; series mostly up to 114 µM
Procedure, shortened: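 BAZ2B (50 nM) with biotin-H3(5-23)K14Ac peptide (50 nM) in PBS pH 7.4, 0.01% Tween-20, preformed 30 min, then compound 30 min at room temperature; top concentration 110uM. AlphaScreen streptavidin donor/nickel chelate acceptor beads (10 ug/mL final), 20 min dark, signal read.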
Potency is the fitted concentration of half-maximal effect; tags give direction and shape of the fitted curve.

SMILES | Potency
O=C(c1ccc([N+](=O)[O-])o1)N1CCN(Cc2ccccc2)CC1 | inactive
COc1ccc(-n2c(C)cc(/C=C3\C(=N)N4N=C(CC(=O)N5CCOCC5)SC4=NC3=O)c2C)c(OC)c1 | inconclusive: 22.4 µM [inhibitor, single point]
CCOc1cccc(C(=O)Nc2cc(C)ccc2NC(=O)c2ccco2)c1 | inconclusive: 79.4 µM [inhibitor, single point]
Cc1ccc(C(=O)N/C(=C/c2cccs2)C(=O)NCCc2c[nH]c3ccccc23)cc1 | inconclusive: 44.7 µM [inhibitor, partial curve]
O=C(O)c1cc(-c2ccc(-c3c(-c4ccc5c(c4)OCO5)noc3-c3ccsc3)cc2)nc2ccccc12 | inconclusive: 31.6 µM [inhibitor, partial curve]
Cn1c(SCC(=O)NC(c2ccccc2)c2ccccc2)nnc1-c1cccs1 | inactive
CNc1ccc(Br)cc(C(=O)/C=C/c2cccc(OC)c2OC)c1=O | active: 39.8 µM
CCN(CC)c1ccc(/C=N/NC(=S)NCc2ccco2)cc1 | inconclusive: 39.8 µM [inhibitor, full curve]
CC(C)(C)n1nnnc1C(c1cccc(C#N)c1)N1CCCCCC1 (stereo not given) | inactive
Cc1ccc(-c2csc(NC(=S)NC(=O)/C=C/c3ccco3)n2)cc1 | inconclusive: 44.7 µM [inhibitor, partial curve]
Cc1cc(N)n2ncc(-c3ccccc3)c2n1 | inconclusive: 11.2 µM [inhibitor, single point]
O=C1c2ccccc2C(Nc2ccccc2)N1c1ccc(Cl)cn1 (stereo not given) | inactive
CC1CN(S(=O)(=O)c2ccc(C(=O)Nc3nnc(-c4ccco4)o3)cc2)CC(C)O1 (stereo not given) | inconclusive: 89.1 µM [inhibitor, single point]
COc1ccc(Oc2ncc(CN3CCN(c4ccccc4)CC3)s2)cc1 | inconclusive: 39.8 µM [inhibitor, partial curve]
S=c1[nH]nc(Cc2ccc(Cl)cc2)o1 | inconclusive: 1.26 µM [inhibitor, full curve, poor fit]
CCCCN=C1C([N+](=O)[O-])=CC=C2C1=NC1(CCCCC1)N2O | active: 2.24 µM
CC(=O)c1ccc(-n2c(-c3cc(-c4ccco4)[nH]n3)n[nH]c2=S)cc1 | inconclusive: 50.1 µM [inhibitor, partial curve]
COCC(=O)N1CCC(n2nnc3cc(C(F)(F)F)ccc32)CC1 | inactive
O=C(N/N=C\c1cccs1)c1ccccc1-n1cccc1 | inconclusive: 89.1 µM [inhibitor, single point]
CCN(CC)S(=O)(=O)c1ccc2c(c1)nc(SCC(=O)N1CCOCC1)n2-c1ccccc1OC | inconclusive: 89.1 µM [inhibitor, single point]
CCc1ccc(N(CC)c2ncnc3nc[nH]c23)cc1 | inconclusive: 89.1 µM [inhibitor, single point]
Cc1ccc(C)n1CCN1CCN(CC(=O)Nc2cc(C(F)(F)F)ccc2Cl)CC1 | inconclusive: 89.1 µM [inhibitor, single point]
CC(=O)C1=C(O)C(=O)N(c2ccc(Br)cc2)C1c1ccc(Br)cc1 (stereo not given) | inconclusive: 35.5 µM [inhibitor, single point]

SMILES | Potency
CCOC(=O)CSc1cc(-c2ccccc2)nc2ncnn12 | inconclusive: 89.1 µM [inhibitor, single point]
COc1cc(C(=O)Nc2c(C(=O)O)[nH]c3ccccc23)cc(OC)c1OC | inactive
CCc1nnc(NS(=O)(=O)c2ccc(N=Cc3c(C)[nH]n(-c4ccc(C)c(C)c4)c3=O)cc2)s1 | active: 50.1 µM
O=C(CSc1ncc(S(=O)(=O)c2ccc(Br)cc2)c(=O)[nH]1)Nc1ccc2c(c1)OCCO2 | inactive
COc1cc(NC(=S)Nc2ncccc2C)cc(OC)c1OC | inconclusive: 50.1 µM [inhibitor, partial curve]
CCOC(=O)C(O)(C1C(=O)CC(C)(C)CC1=O)C(F)(F)F (stereo not given) | inconclusive: 89.1 µM [inhibitor, single point]
CCOc1cc(C2NN=C(c3ccccc3)S2)ccc1OCc1ccccc1Cl (stereo not given) | inconclusive: 28.2 µM [inhibitor, single point]
Cc1cc(C)cc(NC(=O)c2cc(S(=O)(=O)N3CCc4ccccc43)cn2C)c1 | inconclusive: 89.1 µM [inhibitor, single point]
O=S(=O)(Nc1cc(S(=O)(=O)N2CCOCC2)ccc1NCC1CCCO1)c1ccccc1 (stereo not given) | inactive
Cc1ccc(-n2c(SCC(=O)c3ccccc3)nc3c([nH]c4ccccc43)c2=O)cc1 | inactive
OC(CN1CCCC1)Cn1ccc2ccccc21 (stereo not given) | active: 50.1 µM
CSc1ccccc1N1CCN(C(=O)Nc2ccc3c(c2)NC(=O)CO3)CC1 | inconclusive: 79.4 µM [inhibitor, partial curve, poor fit]
N#CC1=C(SCC(=O)Nc2ccc(C(=O)O)cc2)NC(=O)CC1c1ccco1 (stereo not given) | inactive
CC(C)(CSc1nncn1N)NS(=O)(=O)c1ccc(Cl)cc1 | inconclusive: 89.1 µM [inhibitor, single point]
COc1cccc(Oc2cc(NN3CCCCC3)c([N+](=O)[O-])cc2[N+](=O)[O-])c1OC | active: 8.91 µM
COc1ccc(C(=O)COC(=O)CNC(=O)C2CCCCC2)c(OC)c1 | inactive
COc1ccc(/C=N/N(Cc2ccccc2)c2ccccc2)cc1O | active: 28.2 µM
Cc1nn(-c2cccc(C(F)(F)F)c2)c(Cl)c1/C=N/Nc1cccc(C(=O)O)c1 | inconclusive: 50.1 µM [inhibitor, partial curve]
COCCn1c(C)cc(C(=O)COC(=O)c2ccc3ncsc3c2)c1C | active: 56.2 µM
Cc1ccc(C)c(OCCC(=O)OCC(=O)NCCc2ccc(S(N)(=O)=O)cc2)c1 | inactive
COc1ccc(/C=N/NS(=O)(=O)c2ccc(C)cc2)cc1OC(=O)c1ccc(C)cc1 | inactive
CCNC(=S)N/N=C/c1ccc(-c2ccccc2)o1 | inconclusive: 70.8 µM [inhibitor, single point]
